± gives the standard deviation of the averaged measurements. Some of the results follow.
Each sequence was assayed on PfAP2-LT AP2 domain (GST-tagged) (assay: gcPBM binding intensity (ln(normalized median fluorescence intensity)); higher = stronger DNA binding).
Outline: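 Alexa488 anti-GST antibody, scanned at 488 nm, detected GST-tagged P. falciparum DNA-binding domains that had been expressed in E. coli and incubated for 1 h on an Agilent 4 × 180k array. The array carried primer-extended double-stranded 36-bp intergenic genomic probes and negative controls. Binding intensity is the highest Masliner-normalised natural-log median intensity across replicate spots of either orientation of each probe.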
“AACAAAATAGGGAACACACACATGTCAATATATAAA [CACACA_site2596]” was tested, and the “gcPBM binding intensity (ln)” value was 9.43 ± 0.5. In the case of “AAAAAAAATTAATAGGGTACATGAAAAGTGGAATAT [XGTACX_site618]”, the “gcPBM binding intensity (ln)” value is reported as 9.03 ± 0.4. For “CACATACACATACAAACACACATTAGATATAAATAT [CACACA_site6854]”, the “gcPBM binding intensity (ln)” value was 9.27 ± 0.47. “ATAGAAGAAATATGCACACATACATTGAAATGTTTT [CACACA_site321]” was tested, and the “gcPBM binding intensity (ln)” value was 8.99 ± 0.36. For “TTTTTATTTATTAATACACACACACCCACCCACAAA [CACACA_site7965]”, the “gcPBM binding intensity (ln)” value was 9.805 ± 0.064. For “AAAGAAAAAAATAATTGTACATTTATATTTAATTTA [XGTACX_site8003]”, the “gcPBM binding intensity (ln)” value was 8.27 ± 0.47. In the case of “TTTTTTTTTAAATAATGTACTTTTCATTATTTAGAT [XGTACX_site1706]”, the “gcPBM binding intensity (ln)” value is reported as 8.54 ± 0.43. In the case of “TAATTTTATATATGCACACAAAATATGTTCATATAA [CACACA_site4076]”, the “gcPBM binding intensity (ln)” value is reported as 8.72 ± 0.39. For “TGAAAAATGTTGATGTGTACTTATATAGTGTGTTAA [XGTACX_site2100]”, the “gcPBM binding intensity (ln)” value was 8.81 ± 0.45. “TTTAACATAAATTAAACACACAATATAATACATTAA [CACACA_site1237]” was tested, and the “gcPBM binding intensity (ln)” value was 8.76 ± 0.4. With “CATTTTATCAAAAGTGGTACAACCCTTTCAAAAAAT [XGTACX_site341]” the “gcPBM binding intensity (ln)” value was 8.38 ± 0.39. “TTTTTTTTTTTTTTTTGTACGTAATATATGATTAAT [XGTACX_site6876]” was tested, and the “gcPBM binding intensity (ln)” value was 8.54 ± 0.35. In the case of “AAATTACTTTCACAGTGTACTTGGAAAAAAAAAAGA [XGTACX_site1046]”, the “gcPBM binding intensity (ln)” value is reported as 8.57 ± 0.4. “AGATATAATAAATATACACACATATATATATATATA [CACACA_site962]” was tested, and the “gcPBM binding intensity (ln)” value was 9.62 ± 0.26. “ATATATATTTTTATTTGTACATAATTTTTTTTGTGA [XGTACX_site6378]” was tested, and the “gcPBM binding intensity (ln)” value was 8.66 ± 0.5. With “ATAAAATTGTTTAAATGTACATATGAACAGTCAGTA [XGTACX_site5140]” the “gcPBM binding intensity (ln)” value was 8.78 ± 0.51. In the case of “TTTTTTTTTTTTTGCACACACATATATAGATATATA [CACACA_site7784]”, the “gcPBM binding intensity (ln)” value is reported as 9.41 ± 0.34. “ATATATGTAATAAATAGTACACACACACATATATAT [XGTACX_site2817]” was tested, and the “gcPBM binding intensity (ln)” value was 9.94 ± 0.19. For “ATATATATTTAAATGTGTACTCATTTATTTTATGTC [XGTACX_site4984]”, the “gcPBM binding intensity (ln)” value was 9 ± 0.37. With “TATATATATAAACACACACACACATATATATATATT [CACACA_site8814]” the “gcPBM binding intensity (ln)” value was 9.84 ± 0.014. For “ATAGTATAACAGCAATGTACACATATTTGTGTATAT [XGTACX_site7899]”, the “gcPBM binding intensity (ln)” value was 9.08 ± 0.37. For “TGATATTTATAATAAATATTATAATAAAATCAAACA [XGTACX_negctrl_site219]”, the “gcPBM binding intensity (ln)” value was 8.41 ± 0.34. For “TTTTTTTTTTTTGTCACACATATATTTGTATTTATA [CACACA_site5234]”, the “gcPBM binding intensity (ln)” value was 8.8 ± 0.49. “TGTAGTCTGGAGAAACGTACATAGTATCTGGTAACC [XGTACX_site4939]” was tested, and the “gcPBM binding intensity (ln)” value was 8.94 ± 0.31. In the case of “TATATATATATATATACACACATATATATATTTATA [CACACA_site627]”, the “gcPBM binding intensity (ln)” value is reported as 9.66 ± 0.31. For “ATAACATTCATATTCACACAAAAATATACTACATAG [CACACA_site4529]”, the “gcPBM binding intensity (ln)” value was 8.81 ± 0.42. In the case of “TATTTATTTTTTTGCACACATATTTTACATTTTAAT [CACACA_site3181]”, the “gcPBM binding intensity (ln)” value is reported as 9.54 ± 0.47. For “ATTGAAAATTGTTGCACACATAATAATTAAATATAT [CACACA_site1857]”, the “gcPBM binding intensity (ln)” value was 8.93 ± 0.4. For “ATATAAAAAGTGTATCGTACATTTACTTATTTTATA [XGTACX_site6249]”, the “gcPBM binding intensity (ln)” value was 8.65 ± 0.42. In the case of “ATAAAAAAAGGACACACACACATATATATATATATA [CACACA_site5662]”, the “gcPBM binding intensity (ln)” value is reported as 10.46 ± 0.05. With “AAAAAAATCACATAAAATACTTTATTTTATATTATA [GTGCAC_negctrl_site372]” the “gcPBM binding intensity (ln)” value was 8.24 ± 0.47. “TATATTTCTTATTTCTTATTTTGTCATCACCTTTTT [CACACA_negctrl_site1115]” was tested, and the “gcPBM binding intensity (ln)” value was 8.82 ± 0.54. “TATAAATATGTTCTTACACACACGAATATAAATATG [CACACA_site7537]” was tested, and the “gcPBM binding intensity (ln)” value was 9.1 ± 0.33. For “TTACATAATATATGTACACACGCAAATACTTATAAT [CACACA_site7995]”, the “gcPBM binding intensity (ln)” value was 9.03 ± 0.44. “TACTTTTTTTTTTTTTTTTTTTTTTTTTCCCTTTTT [CACACA_negctrl_site761]” was tested, and the “gcPBM binding intensity (ln)” value was 8.57 ± 0.65. For “ATATATATATATATATGTACATATGTTAATCTGCAT [XGTACX_site1068]”, the “gcPBM binding intensity (ln)” value was 9.78 ± 0.47. For “CTTTTTTTCCATTAAGCATGCACATTCATATTTACT [TGCATGCA_site170]”, the “gcPBM binding intensity (ln)” value was 9.07 ± 0.45. “TATATATATATAGGTTGTACATTTTGATGTTTACGT [XGTACX_site5503]” was tested, and the “gcPBM binding intensity (ln)” value was 9.55 ± 0.5. In the case of “GTTTATTTATTATAATGTACATTAGTCTGAGGAGTT [XGTACX_site4035]”, the “gcPBM binding intensity (ln)” value is reported as 8.91 ± 0.45. TTTTATTTATATATAGTGCATATTATTATAAAACAA was tested, and the “gcPBM binding intensity (ln)” value was 8.29 ± 0.47. With “TTTATTTTTTATATATCACTTAAAAAAAAAAAAAAA [CACACA_negctrl_site249]” the “gcPBM binding intensity (ln)” value was 7.86 ± 0.3. “GAATATAAAAGGAACGGTACAGAAAAAAAAAAAAAA [XGTACX_site3917]” was tested, and the “gcPBM binding intensity (ln)” value was 8.87 ± 0.57. For “ATTTATATTTTATATACACACATGAACTTATATGGA [CACACA_site3167]”, the “gcPBM binding intensity (ln)” value was 8.94 ± 0.44. For “AATATAGTCTCACATACACACATATATATTTATATA [CACACA_site2503]”, the “gcPBM binding intensity (ln)” value was 8.99 ± 0.31. With “CTTTTTTTTTTATGCACACACAATTATACATTCCTT [CACACA_site3877]” the “gcPBM binding intensity (ln)” value was 9.59 ± 0.4. “ATGTAATATATTATATGTACATATTTTTATGTAGAT [XGTACX_site5945]” was tested, and the “gcPBM binding intensity (ln)” value was 8.86 ± 0.43. “AAAAAAAAAAAAACTAGTACATATATATAGTATGAA [XGTACX_site6279]” was tested, and the “gcPBM binding intensity (ln)” value was 8.7 ± 0.55. In the case of “AAAACAAATAAGTAAACACACATATATAATATATAT [CACACA_site2586]”, the “gcPBM binding intensity (ln)” value is reported as 9.09 ± 0.4. In the case of “GAATAAATTAAATTCACACATAAAATACAAAATACA [CACACA_site5495]”, the “gcPBM binding intensity (ln)” value is reported as 8.87 ± 0.4. In the case of “ACATATATATATATATAAATATATATGTATGTATTT [XGTACX_negctrl_site237]”, the “gcPBM binding intensity (ln)” value is reported as 8.93 ± 0.4. For “ATTATATTTGAATGGTGTACTATAATAATGTAGTTT [XGTACX_site8069]”, the “gcPBM binding intensity (ln)” value was 8.71 ± 0.42. “CATACACGCGGACACACACACACACGCATATATAAC [CACACA_site6427]” was tested, and the “gcPBM binding intensity (ln)” value was 10.1 ± 0.23. For “CTTATATTAATTATTACACACATATATATAAATGCA [CACACA_site770]”, the “gcPBM binding intensity (ln)” value was 8.83 ± 0.41. In the case of “AAAGAAAATAGGTGTACACATAATAAATACAGCTAT [CACACA_site5917]”, the “gcPBM binding intensity (ln)” value is reported as 9.44 ± 0.56. With “ACAAGTGTATATGTTATATATATATATATATATATA [CACACA_negctrl_site1686]” the “gcPBM binding intensity (ln)” value was 9.46 ± 0.15. With “AAAATAATATTTAATACACACATAATTACAATATAA [CACACA_site6510]” the “gcPBM binding intensity (ln)” value was 8.88 ± 0.44.
